# From the supplement of paper PMC8728848
# The list shows a part of the results.
# B1: Epa1-NP-mutant-Y228A (Candida glabrata), Q6VBJ0 (protein)
# chain: MILNPALFLNKCVCIYTTLILLLLTNGGYATSSNDISLASKDPTTFPLGCSPDITTPKKGLSMELYSYDFRKKGSYPCWDAAYLDPNYPRTGYKSHRLLAKVDGVTGNINFYYHATKGCTPQLGHLPASYNYPKPLTMTNFTMLLYGYFRPKVTGFHTFTISADDLLFVNFGAGNAFDCCRRDSSADHFGNYQAYAIWGSKTAKDELTVHLDAGVYYPIRLFYNNREADGALSFTFKTESNENTVSDFSEYFFSLDDTEEGCPGLISYDSSCASVKTSKIIGIDYHTETPNENLVPITKTIYHLGIPCTGTTTTPLCGSGFYDPLANKCVTINTSSTSSVTKTTSHTTSKEVSFHSSISSQKTLIPKSIPSPYGPIKSQSIPTEMETSSEISSSEYAFSDVISTPSHSPYTKKHSSLNSSSYTSTVIHSLTSYSISQGIFSTSLSEQNITSKSSTDKFSTATSMSNNITQSSIIISQFSTNNENYTTTSMHTSSDKISTETLNNSISTTTSILFSNSSTILKNNTTIISSDKDTHYHPVNPTIVCSTNKTEIICASITQPSISNSNNHWSSSVLKFNSTTVRSTLPSSAGSNETSINVPFSSSTESNTSTSSTSTSNSKMVRSTLPSSAGSNETSISVPFSSSTESNTSTSSTSTSNSKMVRSTLPSSAGSNETSINVPFSSSTESNTSTSSTSTSNSKTVRSTPFSSAGIIMTSLSQRNNKSASSYASSNSKCYNTADSCRKVHSTPSYLLTSSYTSEGVDYDCSLVSTKLKINDTNCVNNKHTTKSCLKTSVTTTIPTLEIKTARKSSSNTIGLHSYPTSSPNKSISSAPIIGYISSFKTIKTASPSYQTSDLTTITTITSLNNPGSTAVENTHESNDKSRKTSSNDISSKHSVIKETKDAVESSNKSHQTNTLKCSSIIIASSSHNSYESLGGTTLTLTLSKVYSPQNNDTLPFLEISEVNPSRTVLPESSKMMQYLTSTEERNKTARNTIATNIVSISTFHFEGEGNAIRMGYTQLLLMLIGIIVMNIGT
# Tests used:
# Experiment in all cases: glycan array binding signal (z-score within array); higher = stronger binding
# Conditions in all cases: glycan notation: IUPAC condensed, linker removed; mutation: Y228A
# [1] = target: Neu5Ac(a2-3)Gal(b1-3)]Neu5Ac(a2-3)Gal(b1-4)]GlcNAc
# How it was run: (§1)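 Glycan array data were curated from 3228 arrays in the Consortium for Functional Glycomics database and kept only where the protein sequence was available. Glycan names were converted to IUPAC-condensed notation, and columns mapping to the same glycan were averaged. The binding signal is a within-array Z-score, averaged across arrays of the same protein sequence at different concentrations or buffers and across linkers. Negative Z-scores can be read as non-binding.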
# [2] = target: Neu5Ac(a2-3)Gal(b1-4)Glc
# How it was run: as §1
# [3] = target: Neu5Ac(a2-3)Gal(b1-4)GlcNAc
# How it was run: as §1
# [4] = target: Neu5Ac(a2-3)Gal(b1-4)GlcNAc(b1-2)Man
# How it was run: as §1
# [5] = target: Neu5Ac(a2-3)Gal(b1-4)GlcNAc(b1-2)Man(a1-3)[GlcNAc(b1-4)][Neu5Ac(a2-3)Gal(b1-4)GlcNAc(b1-2)Man(a1-6)]Man(b1-4)GlcNAc(b1-4)GlcNAc
# How it was run: as §1
# [6] = target: Neu5Ac(a2-3)Gal(b1-4)GlcNAc(b1-2)Man(a1-3)[Neu5Ac(a2-3)Gal(b1-4)GlcNAc(b1-2)Man(a1-6)]Man(b1-4)GlcNAc(b1-4)GlcNAc
# How it was run: as §1
# [7] = target: Neu5Ac(a2-3)Gal(b1-4)GlcNAc(b1-2)Man(a1-3)[Neu5Ac(a2-3)Gal(b1-4)GlcNAc(b1-2)Man(a1-6)]Man(b1-4)GlcNAc(b1-4)[Fuc(a1-6)]GlcNAc
# How it was run: as §1
# [8] = target: Neu5Ac(a2-3)Gal(b1-4)GlcNAc(b1-2)Man(a1-3)[Neu5Ac(a2-6)Gal(b1-4)GlcNAc(b1-2)Man(a1-6)]Man(b1-4)GlcNAc(b1-4)GlcNAc
# How it was run: as §1
# [9] = target: Neu5Ac(a2-3)Gal(b1-4)GlcNAc(b1-2)[Neu5Ac(a2-3)Gal(b1-4)GlcNAc(b1-4)]Man(a1-3)[GlcNAc(b1-4)][Neu5Ac(a2-3)Gal(b1-4)GlcNAc(b1-2)[Neu5Ac(a2-3)Gal(b1-4)GlcNAc(b1-6)]Man(a1-6)]Man(b1-4)GlcNAc(b1-4)GlcNAc
# How it was run: as §1
# [10] = target: Neu5Ac(a2-3)Gal(b1-4)GlcNAc(b1-2)[Neu5Ac(a2-3)Gal(b1-4)GlcNAc(b1-4)]Man(a1-3)[GlcNAc(b1-4)][Neu5Ac(a2-3)Gal(b1-4)GlcNAc(b1-4)Man(a1-6)]Man(b1-4)GlcNAc(b1-4)GlcNAc
# How it was run: as §1
# [11] = target: Neu5Ac(a2-3)Gal(b1-4)GlcNAc(b1-2)[Neu5Ac(a2-3)Gal(b1-4)GlcNAc(b1-6)]Man(a1-6)[Neu5Ac(a2-3)Gal(b1-4)GlcNAc(b1-2)Man(a1-3)][GlcNAc(b1-4)]Man(b1-4)GlcNAc(b1-4)GlcNAc
# How it was run: as §1
# [12] = target: Neu5Ac(a2-3)Gal(b1-4)GlcNAc(b1-3)Gal
# How it was run: as §1
# [13] = target: Neu5Ac(a2-3)Gal(b1-4)GlcNAc(b1-3)Gal(b1-3)GlcNAc
# How it was run: as §1
# [14] = target: Neu5Ac(a2-3)Gal(b1-4)GlcNAc(b1-3)Gal(b1-4)GlcNAc
# How it was run: as §1
# [15] = target: Neu5Ac(a2-3)Gal(b1-4)GlcNAc(b1-3)Gal(b1-4)GlcNAc(b1-2)Man(a1-3)[Neu5Ac(a2-3)Gal(b1-4)GlcNAc(b1-3)Gal(b1-4)GlcNAc(b1-2)Man(a1-6)]Man(b1-4)GlcNAc(b1-4)GlcNAc
# How it was run: as §1
# [16] = target: Neu5Ac(a2-3)Gal(b1-4)GlcNAc(b1-3)Gal(b1-4)GlcNAc(b1-3)Gal(b1-4)GlcNAc
# How it was run: as §1
# [17] = target: Neu5Ac(a2-3)Gal(b1-4)GlcNAc(b1-3)Gal(b1-4)GlcNAc(b1-3)Gal(b1-4)GlcNAc(b1-2)Man(a1-3)[Neu5Ac(a2-3)Gal(b1-4)GlcNAc(b1-3)Gal(b1-4)GlcNAc(b1-3)Gal(b1-4)GlcNAc(b1-2)Man(a1-6)]GalNAc
# How it was run: as §1
# [18] = target: Neu5Ac(a2-3)Gal(b1-4)GlcNAc(b1-3)Gal(b1-4)GlcNAc(b1-3)GalNAc
# How it was run: as §1
# [19] = target: Neu5Ac(a2-3)Gal(b1-4)GlcNAc(b1-3)Gal(b1-4)GlcNAc(b1-3)[Neu5Ac(a2-3)Gal(b1-4)GlcNAc(b1-3)Gal(b1-4)GlcNAc(b1-6)]GalNAc
# How it was run: as §1
# [20] = target: Neu5Ac(a2-3)Gal(b1-4)GlcNAc(b1-3)Gal(b1-4)GlcNAc(b1-6)[Gal(b1-3)]GalNAc
# How it was run: as §1
# [21] = target: Neu5Ac(a2-3)Gal(b1-4)GlcNAc(b1-3)Gal(b1-4)[Fuc(a1-3)]GlcNAc
# How it was run: as §1
# [22] = target: Neu5Ac(a2-3)Gal(b1-4)GlcNAc(b1-3)GalNAc
# How it was run: as §1
# [23] = target: Neu5Ac(a2-3)Gal(b1-4)GlcNAc(b1-3)[Neu5Ac(a2-3)Gal(b1-4)GlcNAc(b1-6)]GalNAc
# How it was run: as §1
# [24] = target: Neu5Ac(a2-3)Gal(b1-4)GlcNAc(b1-6)GalNAc
# How it was run: as §1
# [25] = target: Neu5Ac(a2-3)Gal(b1-4)GlcNAc(b1-6)[Gal(b1-3)]GalNAc
# How it was run: as §1
# [26] = target: Neu5Ac(a2-3)Gal(b1-4)GlcNAc(b1-6)[Neu5Ac(a2-3)Gal(b1-3)]GalNAc
# How it was run: as §1
# [27] = target: Neu5Ac(a2-3)Gal(b1-4)GlcNAc6S
# How it was run: as §1
# [28] = target: Neu5Ac(a2-3)Gal(b1-4)[Fuc(a1-3)]GlcNAc
# How it was run: as §1
# [29] = target: Neu5Ac(a2-3)Gal(b1-4)[Fuc(a1-3)]GlcNAc(b1-2)Man
# How it was run: as §1
# [30] = target: Neu5Ac(a2-3)Gal(b1-4)[Fuc(a1-3)]GlcNAc(b1-3)Gal
# How it was run: as §1
# [31] = target: Neu5Ac(a2-3)Gal(b1-4)[Fuc(a1-3)]GlcNAc(b1-3)Gal(b1-4)GlcNAc
# How it was run: as §1
# [32] = target: Neu5Ac(a2-3)Gal(b1-4)[Fuc(a1-3)]GlcNAc(b1-3)Gal(b1-4)[Fuc(a1-3)]GlcNAc(b1-3)Gal(b1-4)[Fuc(a1-3)]GlcNAc
# How it was run: as §1
# [33] = target: Neu5Ac(a2-3)Gal(b1-4)[Fuc(a1-3)]GlcNAc(b1-3)GalNAc
# How it was run: as §1
# [34] = target: Neu5Ac(a2-3)Gal(b1-4)[Fuc(a1-3)]GlcNAc(b1-6)[Gal(b1-3)]GalNAc
# How it was run: as §1
# [35] = target: Neu5Ac(a2-3)Gal(b1-4)[Fuc(a1-3)]GlcNAc(b1-6)[Neu5Ac(a2-3)Gal(b1-3)]GalNAc
# How it was run: as §1
# [36] = target: Neu5Ac(a2-3)Gal(b1-4)[Fuc(a1-3)]GlcNAc6S
# How it was run: as §1
# [37] = target: Neu5Ac(a2-3)Gal6S(b1-4)GlcNAc
# How it was run: as §1
# [38] = target: Neu5Ac(a2-3)Gal6S(b1-4)[Fuc(a1-3)]GlcNAc
# How it was run: as §1
binder,measurement,setting,value
B1,glycan array binding signal (z-score),[1],-0.224
same,glycan array binding signal (z-score),[2],-0.112
same,glycan array binding signal (z-score),[3],-0.231
same,glycan array binding signal (z-score),[4],-0.094
same,glycan array binding signal (z-score),[5],-0.274
same,glycan array binding signal (z-score),[6],-0.225
same,glycan array binding signal (z-score),[7],-0.172
same,glycan array binding signal (z-score),[8],-0.237
same,glycan array binding signal (z-score),[9],-0.2
same,glycan array binding signal (z-score),[10],-0.266
same,glycan array binding signal (z-score),[11],-0.291
same,glycan array binding signal (z-score),[12],-0.11
same,glycan array binding signal (z-score),[13],-0.192
same,glycan array binding signal (z-score),[14],-0.038
same,glycan array binding signal (z-score),[15],-0.209
same,glycan array binding signal (z-score),[16],-0.281
same,glycan array binding signal (z-score),[17],0.029
same,glycan array binding signal (z-score),[18],-0.153
same,glycan array binding signal (z-score),[19],-0.127
same,glycan array binding signal (z-score),[20],-0.211
same,glycan array binding signal (z-score),[21],-0.127
same,glycan array binding signal (z-score),[22],-0.218
same,glycan array binding signal (z-score),[23],-0.181
same,glycan array binding signal (z-score),[24],-0.085
same,glycan array binding signal (z-score),[25],-0.158
same,glycan array binding signal (z-score),[26],-0.24
same,glycan array binding signal (z-score),[27],-0.331
same,glycan array binding signal (z-score),[28],-0.209
same,glycan array binding signal (z-score),[29],-0.274
same,glycan array binding signal (z-score),[30],-0.259
same,glycan array binding signal (z-score),[31],-0.142
same,glycan array binding signal (z-score),[32],-0.299
same,glycan array binding signal (z-score),[33],0.221
same,glycan array binding signal (z-score),[34],-0.086
same,glycan array binding signal (z-score),[35],-0.157
same,glycan array binding signal (z-score),[36],-0.057
same,glycan array binding signal (z-score),[37],-0.249
same,glycan array binding signal (z-score),[38],-0.304
